# Source: the supplement of paper PMC3334620
# In all, about 33,000 sequences were measured (“E-score (-0.5 to 0.5)”: median about -0.021, highest 2% from about 0.32 on). This is one part of the list.
# Target: T1, Zap1 (UniProt P47043)
# T1 sequence: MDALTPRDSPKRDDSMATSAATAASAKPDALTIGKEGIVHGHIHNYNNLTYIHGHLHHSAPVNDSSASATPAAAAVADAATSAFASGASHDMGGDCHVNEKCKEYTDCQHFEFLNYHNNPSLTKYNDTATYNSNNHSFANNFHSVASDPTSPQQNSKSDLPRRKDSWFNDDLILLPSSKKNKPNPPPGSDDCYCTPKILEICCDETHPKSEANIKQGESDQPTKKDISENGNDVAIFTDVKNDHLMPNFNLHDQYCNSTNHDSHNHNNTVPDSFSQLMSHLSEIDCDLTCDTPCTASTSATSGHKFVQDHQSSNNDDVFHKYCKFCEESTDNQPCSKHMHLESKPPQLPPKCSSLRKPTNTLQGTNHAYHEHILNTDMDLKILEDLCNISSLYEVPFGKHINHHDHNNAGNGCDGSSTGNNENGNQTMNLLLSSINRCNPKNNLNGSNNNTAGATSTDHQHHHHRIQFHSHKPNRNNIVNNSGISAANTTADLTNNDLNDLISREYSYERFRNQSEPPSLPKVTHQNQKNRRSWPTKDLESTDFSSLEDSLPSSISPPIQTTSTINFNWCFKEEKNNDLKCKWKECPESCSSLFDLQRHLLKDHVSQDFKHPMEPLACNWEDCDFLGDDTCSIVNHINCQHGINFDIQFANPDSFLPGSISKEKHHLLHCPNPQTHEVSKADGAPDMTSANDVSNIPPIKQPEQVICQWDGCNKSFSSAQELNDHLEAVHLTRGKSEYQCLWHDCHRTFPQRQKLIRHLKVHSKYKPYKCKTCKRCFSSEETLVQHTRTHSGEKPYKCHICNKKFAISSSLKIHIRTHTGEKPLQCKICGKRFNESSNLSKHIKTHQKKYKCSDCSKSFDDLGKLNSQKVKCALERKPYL
# Assay: PBM E-score (8-mer binding enrichment) (E-score (-0.5 to 0.5)); higher = stronger / more preferred TF binding; most listed sequences are background and not binding sites
# Details: protein concentration: 200 nM; construct: GST-full length
# In short: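 Each ungapped eight-base word and its reverse complement, pooled, received an E-score from the Universal PBM Analysis Suite. Underlying scans, normalised with masliner, recorded fluorescent anti-GST bound to GST-tagged yeast transcription factors. These were applied at about 100-200 nM to universal all-10-mer Agilent arrays double-stranded by primer extension.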
row,Sequence,PBM E-score
1,TATAATGA,0.105
2,ATTAAGTG,0.162
3,GGTTCAAA,0.0699
4,CGCACCAG,-0.00742
5,AGAACCAG,0.0863
6,CGTATCCC,0.0228
7,GCGCGGGA,-0.13
8,GCGCCACC,-0.00555
9,ATTTCATC,0.135
10,GCGTTACA,0.126
11,ATCTGTGG,-0.207
12,GCAGCAGA,-0.141
13,ATAATCCG,-0.0477
14,GTTTTCTA,0.151
15,AGTACTTC,0.148
16,GCCCTGTA,-0.0104
17,GAAAAAGA,0.148
18,ATTCCGGA,0.0632
19,GCAAAAAA,0.21
20,CAGAGGAG,-0.276
21,CAACGCTC,-0.0729
22,CCTTGGCC,-0.269
23,GCATATTA,0.0185
24,AGTCGTAG,-0.0544
25,GCGTTTCC,-0.205

row,Sequence,PBM E-score
1,GAGTTCTA,0.0389
2,ATGATTCG,-0.0783
3,CTACCTTA,0.327
4,TACAGGAA,0.101
5,GTACGTCA,-0.216
6,AGCGTGAT,-0.0712
7,ATTGGCCG,-0.236
8,CCTTTCAC,0.103
9,CAGACGCC,-0.0695
10,AGGCGAAG,-0.288
11,CCGCCCAA,-0.106
12,GCGTTCCA,-0.145
13,ATTTGCAG,0.113
14,ACATTGCT,0.0363
15,CGGTCCTA,-0.0133
16,TGGGGAAA,0.0534
17,AATTCTAA,0.149
18,CTTGTTGA,0.124
19,AAACATCG,-0.172
20,GGATTCAA,-0.191
21,CATAAAAA,0.171
22,CCTAAATC,0.156
23,CAGCATAA,-0.0697
24,TAGCCACA,0.001
25,TCTTCCAA,-0.00655

row,Sequence,PBM E-score
1,GACGAGGC,-0.22
2,AACACCTT,0.192
3,AGTAGACT,-0.104
4,ATAGGTTA,0.46
5,GAATACTA,0.144
6,GACGTTCC,-0.195
7,CGTGCGGA,-0.251
8,AATCCGTG,0.0184
9,CAGGAGAA,-0.00707
10,CACAGATG,-0.212
11,GGTACACA,0.113
12,CTAGGTTC,0.0156
13,CCTGTGAG,0.133
14,CCTTATCA,0.114
15,GAACCGGC,-0.145
16,ACACCGCG,-0.175
17,ACCCAGAC,0.00258
18,ACATTCTC,-0.0126
19,GCCCATCC,-0.338
20,AATCGGCT,0.0585
21,CAGGGCAG,-0.0677
22,AGTATTCG,-0.0303
23,CTTATTAA,0.0579
24,CAAAGTTC,-0.141
25,CGGCGGCC,-0.197

row,Sequence,PBM E-score
1,TACTAACA,0.235
2,CATTGTGC,-0.0523
3,CAGGTGCG,0.0458
4,AGGTCCCC,0.203
5,AGTCGTGC,-0.255
6,AGTTGCAC,-0.037
7,ATGTTAGC,-0.1
8,ACTCAATC,0.108
9,TAGTTAGA,0.058
10,AGAACGGC,-0.132
11,CCATGAAC,0.14
12,TATGGACA,0.192
13,ACGTTCGC,-0.191
14,AATCAACG,0.0163
15,ACTGGCTC,-0.227
16,GGTTGTAC,0.336
17,CAAAAATA,0.198
18,GTCGAAAC,-0.0759
19,ATGAACGC,0.131
20,ATAGCGTC,-0.0103
21,GCCACGCC,0.00642
22,CACTTCGA,-0.0374
23,CTACAGGC,-0.258
24,GCGAGGGA,-0.154
25,ACATTTCC,0.0405

row,Sequence,PBM E-score
1,CCAAATCC,-0.2
2,ACATGTTG,0.0732
3,GATTCAGC,-0.225
4,GCCTAGAA,0.0412
5,TCCTATAA,0.0713
6,GAAGACAA,-0.0349
7,TGAAGAAA,0.0892
8,CAATAATG,-0.00451
9,CCACATCC,-0.166
10,CAGACTGG,-0.0742
11,CTATCCGA,-0.124
12,GGCACAAC,0.0738
13,TGTTCCAA,0.105
14,CAAAGGTA,0.267
15,ACTACTGC,-0.277
16,CCTCACAC,-0.188
17,CGAGCTCC,-0.12
18,GCATGAGA,-0.0936
19,CCAACTCA,-0.0111
20,ACATTGAC,-0.0853
21,GTTCCTAA,0.0431
22,AGGGGTGA,0.219
23,CAAACGGG,0.0184
24,GCGTAAAC,0.00957
25,GAACCGTA,-0.165

row,Sequence,PBM E-score
1,CCGCAGCG,-0.13
2,CTCGCTGA,-0.0008
3,ACTATCGA,-0.0815
4,ACTTTGGC,-0.113
5,ATAAAACG,-0.00923
6,GCATTTCA,0.0235
7,AATCCGAA,-0.0876
8,ATCCGTGG,-0.0543
9,AGGTTCGG,-0.112
10,GATATGGA,0.0205
11,ATACATTA,0.133
12,AGGCGACA,-0.329
13,AAGCTGGC,-0.275
14,CAGGGAAA,-0.158
15,AATGTCCC,-0.066
16,AGACCGGC,-0.262
17,GTACCCAA,0.234
18,CACATCTA,-0.093
19,AGTATACC,0.16
20,GACTAGTC,-0.225
21,CTGCCCTC,-0.256
22,CAGAACCC,0.317
23,GCGACCAC,-0.0322
24,AGAACCGA,0.0215
25,GATCGAAC,0.0204

row,Sequence,PBM E-score
1,GCGGTTAC,0.452
2,CAAGTTTA,0.161
3,CCCAGTGC,-0.044
4,GAGCTTCA,-0.128
5,AGTTTCTG,0.0935
6,GTTTTGCA,0.057
7,AGCTCTCA,-0.176
8,CGAACGAA,-0.104
9,AAGCTCTG,-0.208
10,GTTTAGTA,0.162
11,CTAAGCAA,-0.23
12,ACGAATTG,0.0213
13,GCTGAGGA,-0.155
14,ACGGTTAG,0.223
15,TAACAGCA,0.0563
16,AACAGCAC,-0.043
17,AATCCGAG,-0.115
18,AGGAATGC,-0.217
19,GGCCTTGA,0.0312
20,TCTTTCAA,-0.0173
21,CTTTGACC,0.217
22,AATCTCTC,-0.098
